These results are taken from publication PMC4336329 (PLoS ONE, 2015).

The whole screen tested about 310,000 compounds, of which about 2,200 (0.71%) showed an effect of 50% or more. Effects have a minus sign here. The list shows a part of the results.

Chain of human ether-à-go-go-related gene (hERG) potassium channel (Q12809 whole entry, looked up): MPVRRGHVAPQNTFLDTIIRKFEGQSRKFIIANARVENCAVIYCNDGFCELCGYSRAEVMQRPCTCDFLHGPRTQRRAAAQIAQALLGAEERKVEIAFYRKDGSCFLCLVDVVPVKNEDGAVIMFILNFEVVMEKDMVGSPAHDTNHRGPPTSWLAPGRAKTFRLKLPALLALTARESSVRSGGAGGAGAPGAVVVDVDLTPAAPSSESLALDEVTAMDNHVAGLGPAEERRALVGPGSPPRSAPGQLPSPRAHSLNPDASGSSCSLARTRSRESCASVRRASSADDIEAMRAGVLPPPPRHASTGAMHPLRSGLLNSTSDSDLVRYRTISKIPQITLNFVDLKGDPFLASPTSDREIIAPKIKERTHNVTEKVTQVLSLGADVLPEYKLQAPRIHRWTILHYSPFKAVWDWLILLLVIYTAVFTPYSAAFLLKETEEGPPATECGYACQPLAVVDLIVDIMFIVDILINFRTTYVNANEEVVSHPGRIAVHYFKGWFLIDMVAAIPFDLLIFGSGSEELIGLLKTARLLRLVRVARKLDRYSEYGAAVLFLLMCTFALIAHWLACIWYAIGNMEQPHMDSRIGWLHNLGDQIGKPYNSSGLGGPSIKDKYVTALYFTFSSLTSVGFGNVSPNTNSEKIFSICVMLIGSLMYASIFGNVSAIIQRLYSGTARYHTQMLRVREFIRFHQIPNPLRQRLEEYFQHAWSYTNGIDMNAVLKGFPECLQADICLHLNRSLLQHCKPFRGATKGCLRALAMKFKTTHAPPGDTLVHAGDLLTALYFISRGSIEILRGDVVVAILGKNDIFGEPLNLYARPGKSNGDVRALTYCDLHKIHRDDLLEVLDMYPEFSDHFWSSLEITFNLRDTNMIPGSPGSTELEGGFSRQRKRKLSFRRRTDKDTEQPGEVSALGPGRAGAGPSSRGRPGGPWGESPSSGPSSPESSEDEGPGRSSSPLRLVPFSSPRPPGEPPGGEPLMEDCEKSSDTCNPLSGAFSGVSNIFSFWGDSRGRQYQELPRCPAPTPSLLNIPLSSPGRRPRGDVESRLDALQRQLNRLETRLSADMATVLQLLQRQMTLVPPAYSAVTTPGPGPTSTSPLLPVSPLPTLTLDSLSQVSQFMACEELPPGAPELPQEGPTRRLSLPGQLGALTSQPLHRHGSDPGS

The assay has as its target human ether-à-go-go-related gene (hERG) potassium channel (human, UniProt Q12809). In words: primary screen, population patch clamp on CHO cells stably expressing hERG.
For `CSc1ccc(NC(=O)CC(C)=O)cc1`, the “hERG current change (%, negative = inhibition) at 1uM” value was -4.18%. The figure for `COc1cc(/C=N/Nc2nc3ccccc3s2)ccc1OC(=O)c1ccccc1F` is 7.42%; for `Cc1ccc(SCCC(=O)NC2CC2)cc1` it is 10.7%; for `COCCCNC(=O)Cn1cc(/C=C2\C(=O)NC(=O)N(c3ccccc3F)C2=O)c2ccccc21` it is 9.61%. On to `CCN1CCN(C(=O)c2cc3c(s2)-c2ccccc2S(=O)(=O)C3)CC1`, for which the “hERG current change (%, negative = inhibition) at 1uM” value amounted to 2.4%.

For the compound `Cc1ccc(CNC(=O)CC2Nc3c4ccccc4nc(=S)n3C2=O)cc1` (stereo not shown), the “hERG current change (%, negative = inhibition) at 1uM” value is given as 53.5%. The figure for `CCOc1ccc(-n2c(=O)c3sccc3n(CC(=O)Nc3cccc(OC)c3)c2=O)cc1` is 13.6%; for `Cc1onc(-c2ccccc2Cl)c1C(=O)Nc1ccc(OCC(=O)N2CCOCC2)cc1` it is -2.98%. Turning to `COc1cc(NC(=S)N2CCc3ccccc3C2)cc(OC)c1`, the “hERG current change (%, negative = inhibition) at 1uM” value was -1.51%. The figure for `Cc1ccc(-c2nn(CC(=O)N(C)C)c(=O)c3ccccc23)cc1S(=O)(=O)N(C)C` is 5.75%; for `O=C(CCN1C(=O)c2ccccc2C1=O)N1CCCCCC1` it is 3.21%; for `Cc1[nH]c2ccccc2c1C1(O)C(=O)N(Cc2ccc3c(c2)OCO3)c2ccccc21` (stereo not shown) it is 7.12%.

Regarding `CCOC(=O)c1c(-c2ccc(OC)cc2)oc2ccc(OC(=O)N(C)C)cc12`, the “hERG current change (%, negative = inhibition) at 1uM” value was 7.71%. The figure for `CC(=O)Oc1ccc(-c2csc(Nc3ccc(Cl)cn3)n2)cc1` is 18.2%; for `COc1ccc(CN2CCN(S(=O)(=O)c3ccccc3)CC2)c(OC)c1.O=C(O)C(=O)O` it is -18.3%. The figure for `COc1cc2cc3c(N)c(C(=O)Nc4sc(C)c(C)c4C#N)sc3nc2cc1OC` is -5.66%; for `CCn1nc(C)c(CN2CCc3c([nH]c4ccccc34)C2C(C)(C)C)c1C` (stereo not shown) it is 9.7%; for `Cc1nc2ccccc2cc1C(=O)N/N=C/c1ccc([N+](=O)[O-])cc1` it is -8.59%.

As to `Cc1[nH]nc(Nc2ccc(Br)cc2)c1[N+](=O)[O-]`, the “hERG current change (%, negative = inhibition) at 1uM” value is listed as -1.21%.

As for `CCNc1nc(NCC)nc(N/N=C/c2ccc(Br)cc2)n1`, the “hERG current change (%, negative = inhibition) at 1uM” value is given as 8.67%.

Consider `Cc1ccc(-c2nnc(NC(=O)Cc3ccc(F)cc3)o2)c(C)c1`, for which the “hERG current change (%, negative = inhibition) at 1uM” value was found to be 4.13%. Then `Cc1ccc(C)c(S(=O)(=O)N(C(=O)c2ccncc2)c2ccc(OC(=O)c3ccncc3)cc2)c1`, with 12.9%. As for `C/C(=N\NC(=O)Cn1c(C)nc2ccccc21)c1cccs1`, the “hERG current change (%, negative = inhibition) at 1uM” value amounted to 1.72%. Regarding `Cc1ccccc1Nc1nc(N)nc(CSc2nnc(C)n2C)n1`, the “hERG current change (%, negative = inhibition) at 1uM” value turned out to be 18.7%. The figure for `CCC(C)N(C)Cc1cccc(C2(O)CCN(S(=O)(=O)c3ccc(F)cc3)CC2)c1` (stereo not shown) is -30.8%; for `CCCCN(CC)CCNC(=O)CCC(=O)Nc1ccc2nc(N3CCN(C)CC3)cc(C)c2c1` it is 8%.

On to `COc1ccccc1CC(=O)NCC1CCCO1` (stereo not shown), for which the “hERG current change (%, negative = inhibition) at 1uM” value was determined as 12%. Then `N#Cc1c(-c2ccccc2)c(-c2ccccc2)n[nH]c1=O`, with 14.8%; and `CCOc1cccc(C2C(C#N)=C(N)Oc3cc(C)n(Cc4ccccn4)c(=O)c32)c1OCC` (stereo not shown), with 17.2%; and `CCSc1nc2ccccc2n1CC(=O)OC`, with 6.93%. Then `CN1C(=O)/C(=C/c2cccn2-c2ccc3ccccc3c2)C(=O)NC1=S`, with 8.27%. Then `CC(=O)c1ccc(Nc2cc(C)nc3nc(C)nn23)cc1`, with -21.4%; and `CCn1c2ccccc2c2cc(NC(=O)CSc3nccc(=O)[nH]3)ccc21`, with 14.7%; and `O=C(COc1cccnc1[N+](=O)[O-])Nc1cccc(S(=O)(=O)N2CCCCC2)c1`, with 8.08%. Turning to `O=C(Nc1cccc(C(F)(F)F)c1)Nc1ccc2[nH]c(=O)[nH]c2c1`, the “hERG current change (%, negative = inhibition) at 1uM” value was determined as 10.5%.

With `O=C(NC1CCCc2ccccc21)C1CCN(S(=O)(=O)c2cnc[nH]2)CC1` (stereo not shown), the “hERG current change (%, negative = inhibition) at 1uM” value is listed as 14.5%.

For `CCCCOc1ccc(C(=O)N(Cc2ccco2)C2CCS(=O)(=O)C2)cc1` (stereo not shown), the “hERG current change (%, negative = inhibition) at 1uM” value worked out at 13.9%. Then `Clc1ccc2c(N/N=C/c3cccnc3)ccnc2c1`, with -21.6%; and `CCOC(=O)C(CC)(CCC(=O)O)c1csc(Nc2ccc(C)cc2)n1` (stereo not shown), with 11.8%; and `CC(NC(=O)CNC(=O)[C@@H]1Cc2ccccc2CN1)c1ccccc1` (stereo partly shown), with 7%. The figure for `CCc1cccc(NC(=O)COC(=O)C2CCN(c3ccc(C(F)(F)F)cn3)CC2)c1` is 7.33%; for `COc1ccc2c(c1)C(=O)N(c1ccccc1OC)C(=O)C2` it is 15.1%.

With `CC(=O)C1=C(O)C(=O)N(Cc2cccnc2)C1c1ccc(Cl)cc1` (stereo not shown), the “hERG current change (%, negative = inhibition) at 1uM” value is reported as 12.2%.
